In all, about 73,000 compounds went through this assay and about 1,800 (2.5%) were called active. The shares of active, inactive and inconclusive entries below differ from those in the screen. Calls follow the shape of the dose curve; as a rule, active = well fitted activation curve with a large enough effect; inconclusive = small, poorly fitted or top-dose-only effect; inactive = no such curve, though single readings can be large or run the other way. Potencies of inconclusive entries are left out as doubtful fits.
Experiment: qHTS Assay for Agonists of the Thyroid Stimulating Hormone Receptor: Activators of Intracellular cAMP Concentrations in Parental HEK 293; also: nearly all actives have a fitted effect of over 55% in size; as to activation: % of control where 0% means no effect
Conditions: parental HEK293 CNG cAMP sensor, membrane potential fluorescence; activation: at 57.1 µM (top of the series) unless noted
Method in brief: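 Parental HEK 293 cells stably expressing a cAMP-gated CNG channel were loaded with membrane potential dye containing 100 uM RO 20-1724 for 60 min. Compound added for 30 min; depolarization read as fluorescence intensity at 590 nm.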
For `COC(=O)[C@@]1(Cc2ccc(F)cc2)[C@H]2c3cc(C(=O)N4CCCC4)n(Cc4cccc5ccccc45)c3C[C@H]2CN1C(=O)c1ccccc1`, the Potency was inconclusive [activator, partial curve]. For `O=C(C1CCN(c2nnc(-n3cccc3)s2)CC1)N1CCN(c2cccc(C(F)(F)F)c2)CC1`, the Potency was inconclusive [activator, single point]. With `COc1cc(OC)cc(-c2nc(-c3ccccc3OC)no2)c1` the Potency was inconclusive [activator, single point]. For `c1nc(N2CCNCC2)c2sc3nc(N4CCOCC4)c4c(c3c2n1)CCC4`, the Potency was inconclusive [activator, partial curve]. In the case of `COc1ccc2c(Cl)cc(NC(=S)Nc3ccccc3)nc2c1`, the activation is reported as inactive: 7.92% [at 11.4 µM]. In the case of `C[C@]1(C(=O)NCC2CC2)C=C[C@@H](Cc2ccccc2)N1C(=O)c1ccccc1`, the Potency is reported as inconclusive [activator, single point]. With `CCCCC(=O)N=c1sc2cc(S(C)(=O)=O)ccc2n1C` the Potency was inconclusive [activator, single point]. With `CCOc1ccc(C(=O)CN2CCN(S(=O)(=O)c3ccc(F)cc3)CC2)cc1` the Potency was inconclusive [activator, single point]. With `O=C(Nc1ccc(-c2cn3ccsc3n2)cc1)C1COc2ccccc2O1` (stereo not drawn) the “activation” value was inactive: -4.88%. With `Cc1ccc(NC(=O)N2CCC(c3nc4c(nnn4Cc4cccc(Cl)c4)c(=O)[nH]3)CC2)cc1` the “activation” value was inactive: 5.55%. With `CO[C@H]1COC(=O)[C@H](C)NC(=O)[C@@H](C)COC(=O)[C@H]2CCCN2C(=O)C/C=C\[C@H]1C` the activation was inactive: -1.83% [at 11.4 µM]. With `CCCCCn1c(Sc2nc3ccccc3s2)nc2c1c(=O)[nH]c(=O)n2C` the Potency was inconclusive [activator, single point]. For `CC1CC(C)CN(S(=O)(=O)c2ccc(C(=O)Nc3nnc(-c4cccs4)o3)cc2)C1` (stereo not drawn), the “activation” value was inactive: 2.25%. With `O=C(CN(Cc1ccc2c(c1)OCO2)C(=O)CSc1nc2ccccc2o1)NC1CCCCC1` the Potency was active: 15.8 µM. In the case of `Cc1c2cc[n+](CCN3CCCCC3)cc2c(C)c2c1[nH]c1ccc(O)cc12`, the activation is reported as inactive: 10.8% [at 11.4 µM]. With `Cc1ccc(N2CCCn3c2nc2c3c(=O)n(CCN3CCOCC3)c(=O)n2C)cc1` the “activation” value was inactive: -7.38%. In the case of `CCC(=O)Nc1ccc2oc(-c3cccc(C)c3)nc2c1`, the “activation” value is reported as inactive: 4.17%. With `c1ccc(-c2ccccn2)nc1` the Potency was “inactive”. For `CCCS(=O)(=O)n1nc(-c2ccc(Br)cc2)cc1N`, the “activation” value was inactive: 2.69%. With `COC(=O)c1ccccc1NC(=O)CN1CCC(C(=O)c2ccc3c(c2)OCCO3)CC1` the Potency was inconclusive [activator, partial curve]. For `CN1CCN(c2ccccc2NC(=O)Cc2cn(C)c3ccccc23)CC1`, the Potency was inconclusive [activator, single point]. For `CCN(CC)CCCn1c(-c2ccccc2)nc2c(NCc3ccccc3)nc(C)nc21`, the Potency was inconclusive [activator, partial curve]. For `COCC(=O)N1CCC2(CC1)CN(c1ccccn1)C2`, the Potency was active: 15.8 µM. For `CN1CCN(c2ccnc(-c3ccoc3)n2)CC1`, the “activation” value was inactive: 11.1%. In the case of `O=C(CC1N=C2c3ccccc3N=C(SCc3ccc(Cl)cc3)N2C1=O)NCc1ccco1` (stereo not drawn), the Potency is reported as inconclusive [activator, single point]. In the case of `C=CCn1c(N)c(C(=O)OCCC)c2nc3ccccc3nc21`, the “activation” value is reported as inactive: 7.8%. With `CCCCNc1nc(C)nc2c1nc(-c1ccccc1)n2CC(C)(C)CN(C)C` the Potency was active: 31.6 µM. In the case of `O=C(Nc1ccccc1N1CCCC1)c1cc2ccccc2o1`, the “activation” value is reported as inactive: 14.6%. For `COCCn1nnnc1C(C(C)C)N(Cc1cccnc1)Cc1ccccc1Cl` (stereo not drawn), the Potency was inconclusive [activator, partial curve]. For `Cc1ccccc1-n1nnnc1SCc1ncc(-c2ccccc2)o1`, the Potency was inconclusive [activator, single point]. With `Cc1cc2c3nonc3ccc2n1-c1ccccc1` the Potency was inconclusive [activator, single point]. With `Cn1c(=O)[nH]c(=O)c2c1nc(N1CCCCCC1)n2CCN1CCCCCC1` the “activation” value was inactive: 15.9%. For `c1nc(N2CCC3(CC2)OCCO3)c2c3c(sc2n1)CCCC3`, the Potency was inconclusive [activator, partial curve]. For `O=C(Oc1ccc(Cl)c2cccnc12)N1CCOCC1`, the Potency was inconclusive [activator, single point]. For `Cn1c(COc2ccc(Cl)cc2)nc2ccccc2c1=O`, the Potency was inconclusive [activator, single point]. For `c1cc2c(cc1C(N1CCNCC1)N1CCNCC1)OCO2`, the activation was inactive: -3.4% [at 11.4 µM]. With `Cc1occc1C(=O)N1CCN(C(c2ccccc2)c2ccccc2)CC1` the “activation” value was inactive: 19.2%. With `Fc1ccc(OCc2nn3c(Cn4nnc5ccccc54)nnc3s2)cc1` the “activation” value was inactive: 9.34%. For `N#CC12CCCCC1CC1CCCCC1(C#N)N2CCO` (stereo not drawn), the Potency was inconclusive [activator, single point]. For `Cc1ccc(Cn2c(SCCN3CCCCC3)nc3c2c(=O)[nH]c(=O)n3C)cc1`, the Potency was inconclusive [activator, partial curve, poor fit]. In the case of `Clc1ccccc1-c1cncnc1NCc1cccs1`, the Potency is reported as inconclusive [activator, full curve]. In the case of `Cc1ccc(C)c(OCCCN2CCCC2)c1`, the Potency is reported as inconclusive [activator, single point]. With `CSc1nc(SC)c2c3c(oc2n1)COC(C)(C)C3` the “activation” value was inactive: 31.5%. In the case of `CCc1nnc(NC(=O)c2ccc(S(=O)(=O)N(CC)Cc3ccccc3)cc2)o1`, the “activation” value is reported as inactive: 0.587%. In the case of `CCN(CC)CC[n+]1ccc2c(C)c3[nH]c4ccccc4c3c(C)c2c1`, the activation is reported as inactive: 19% [at 11.4 µM]. With `CCN(CC)S(=O)(=O)c1cccc(-c2nnc(SC(C)C(=O)NCCC3=CCCCC3)o2)c1` (stereo not drawn) the Potency was inconclusive [activator, single point]. With `Clc1ccc(Cn2ncc3c(N4CCCC4)ncnc32)cc1` the “activation” value was inactive: -0.188%. For `COC(=O)CSc1nc2ccccc2nc1SCC(=O)OC`, the activation was inconclusive: 39.1% [activator].

— PubChem BioAssay AID938 (National Center for Advancing Translational Sciences (NCATS), 2007)
Potency is read from the fitted curve at half-maximal effect; tags tell the direction and shape of the fitted curve.
